Among all 50,000 compounds or so, about 800 (1.6%) showed an effect of 50% or more. Some of the results follow.
Target: Bcl-2-like protein 10 (Homo sapiens) (UniProt Q9HD36)
Experiment: Phenotype converters, Bcl-B/TR3 peptide binding displacement, primary biochemical FP (AID 1240);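 also: 0% = Bcl-B with tracer peptide and DMSO and 100% = tracer peptide lacking Bcl-B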
Conditions: GST-Bcl-B / FITC-TR3 peptide fluorescence polarization; stronger effect = higher value; compound at 3.75 mg/L

UniProt Q9HD36, sequence (Q9HD36 whole entry, looked up): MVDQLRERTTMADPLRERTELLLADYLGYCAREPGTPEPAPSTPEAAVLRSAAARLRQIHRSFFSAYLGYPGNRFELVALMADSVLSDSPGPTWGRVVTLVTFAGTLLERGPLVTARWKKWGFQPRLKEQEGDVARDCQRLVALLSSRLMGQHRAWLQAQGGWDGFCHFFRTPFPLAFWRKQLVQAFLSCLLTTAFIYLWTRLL

Structure (SMILES)	displacement [%]
Cc1ccc(C(=O)CC(=O)c2ccc(Br)cc2)c(O)c1	-11.8
O=C(CSc1ncc(-c2ccccc2)[nH]1)Nc1ccc(F)cc1	5.5
Cc1cc(-c2ccccc2)nc2cc(C(=O)N3CCCc4ccccc43)nn12	14.2
CC(=O)NN(c1ccccc1)C1CC(C)N(c2ccccc2)N1C(C)=O (configuration not stated)	5
O=[N+]([O-])c1ccc(N(CC(O)CN2CCCCC2)S(=O)(=O)c2ccccc2)cc1 (configuration not stated)	-10
O=C(Cc1cccc2ccccc12)NCCOc1ccccc1Cl	-13.8
CCNC(=O)C(=O)Nc1cc(Cl)ccc1C	14.3
COc1ccc(Cl)cc1S(=O)(=O)n1cnc2ccccc21	11.1
Cc1ccc(C2=NN(C(=O)CCC(=O)O)C(c3ccccc3F)C2)cc1 (configuration not stated)	6.1
O=[N+]([O-])c1ccc(Cl)c(N2CCCC2)c1	15.4
CCn1ccnc1C(O)c1ccc(N(C)C)cc1 (configuration not stated)	15.2
C/C(=N\NC(=O)CSc1nc2ccccc2n1Cc1ccccc1)c1ccco1	-9.6
O=C(c1c(F)cccc1F)N1CCN(c2cc(N3CCCCC3)c(F)cc2[N+](=O)[O-])CC1	-2.7
COc1cc(/C=C2\Sc3ccccc3C2=O)ccc1OCC#N	-0.9
CCN(C(=O)c1ccccc1)c1ccccc1	10
O=C(NCc1ccccn1)c1ccc(O)cc1	8.5

Structure (SMILES)	displacement [%]
CCC(=O)Oc1ccc2c3c(c(=O)oc2c1C)CCC3	13.7
O=C1c2ccc(Oc3ccc([N+](=O)[O-])cc3)cc2C(=O)N1CC1CCCO1 (configuration not stated)	10.9
CC1=CC(C)(C)N(C(=O)NC2CCCCC2)c2ccc(C)cc21	-2.3
O=C(CCC1CCCC1)Nc1nc(-c2ccc(F)cc2)cs1	-10.3
COc1ccc(N(CC(=O)N(Cc2ccccc2)Cc2ccccc2)S(C)(=O)=O)cc1	1.7
C=CCOC(=O)C1=C(C)NC(C)=C(C(=O)OCC=C)C1c1ccc(OC)cc1	11.7
CCCc1ncc(C(O)c2ccc(OC)c(OC)c2)n1C (configuration not stated)	-3.5
CC(=O)NCCCc1oc2ccc(O)cc2c1[N+](=O)[O-]	-3.4
O=C(CN(c1cccc([N+](=O)[O-])c1)S(=O)(=O)c1ccccc1)NCc1ccc(Cl)cc1Cl	2
C=CCNC(=O)CN(c1cccc(Cl)c1)S(=O)(=O)c1ccccc1	12.1
COn1c(=O)c(=O)n(OCc2ccccc2)c2ccccc21	14.4
CC(C)CCn1c(=O)[nH]c2ccccc21	10.2
CCOc1ccccc1NC(=O)C(=O)N/N=C/c1ccc([N+](=O)[O-])cc1	-3.5
Cc1nn(-c2ccccc2)c(C)c1/C=N/O	3.2
CCOc1ccccc1N1C(=O)CC(Sc2ccccc2C(=O)O)C1=O (configuration not stated)	7.8
O=C1/C(=C/c2cccs2)SC(=S)N1c1ccc(Br)cc1	-1.9

— PubChem BioAssay AID1240 (Sanford-Burnham Center for Chemical Genomics, 2008)
